Assay results from PubChem BioAssay (Tox21).
The inconclusive results got no clear call from the source; some entries with a clear call stand among them for comparison. For some of these results: Potencies of inconclusive entries are doubtful fits and often do not repeat. Calls of active or inactive are those of the source. Unless noted, the call rests on the fitted dose curve; in most records, active means well fitted cell-killing curve with a large enough effect in the repeat runs; inconclusive means weak or mixed curves, or effect the other way; inactive means no such curve, though single readings can be large or run the other way.

Target: Peroxisome proliferator-activated receptor delta (Homo sapiens) (UniProt Q03181)
UniProt Q03181, sequence (Q03181 whole entry, looked up): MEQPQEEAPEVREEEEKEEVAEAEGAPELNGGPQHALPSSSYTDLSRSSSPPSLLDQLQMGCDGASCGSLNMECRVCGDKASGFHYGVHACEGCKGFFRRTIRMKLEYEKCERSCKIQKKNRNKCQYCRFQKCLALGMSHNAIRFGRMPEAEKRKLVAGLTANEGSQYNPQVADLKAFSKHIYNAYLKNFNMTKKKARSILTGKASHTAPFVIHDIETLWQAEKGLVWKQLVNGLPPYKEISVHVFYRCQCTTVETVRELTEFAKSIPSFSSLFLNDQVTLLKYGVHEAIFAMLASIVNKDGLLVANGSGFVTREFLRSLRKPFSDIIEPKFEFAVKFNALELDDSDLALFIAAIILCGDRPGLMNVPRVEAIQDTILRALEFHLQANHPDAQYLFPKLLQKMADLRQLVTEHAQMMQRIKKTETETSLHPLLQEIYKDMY
Assay: qHTS assay to identify small molecule antagonists of the peroxisome proliferator-activated receptor delta (PPARd) signaling pathway (AID 743215; active means well fitted inhibition curve with a large enough effect in the signal ratio in the repeat runs, not every such curve was filed as active; inconclusive means weak or mixed curves, or effect the other way; inactive means no such curve, though single readings can be large or run the other way; the % refers to the signal ratio;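 further: cells stimulated with agonist L165041 at 300 nM final during compound exposure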; further: potency means the concentration at half of the fitted maximal effect)
Settings: HEK293H PPARd-UAS-bla, beta-lactamase FRET ratio, antagonist, 17 h; ratio activity, negative = inhibition: at 62 µM (top of the series) unless noted
How it was run: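 Antagonist-mode beta-lactamase reporter screen: HEK293H cells with UAS-bla under PPARd control, stimulated by 300 nM L165041 (final) alongside test compound for 17 h at 37 C, then FRET fluorescence after 2 h substrate incubation.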
On the % scale 0 is the no-effect control and ±100 the full control effect; tags describe the fitted curve by direction and shape or compound fluorescence and quenching.

Compound	ratio activity, negative = inhibition	Potency
CCCCCC/C=C/C=O	inconclusive: -34.4%	
COc1ccc(N)c(OC)c1	inconclusive: -51.6%	inconclusive: 0.0017 µM [fluorescent, full curve, poor fit]
CCN(CC)CCNC(=O)c1cc(Br)c(N)cc1OC		inconclusive: 0.668 µM [fluorescent, full curve, poor fit]
C=CC(C)CCC=C(C)C (centres undefined)		inconclusive: 21.3 µM [fluorescent, full curve]
CCCC(=O)OC/C=C(\C)CCC=C(C)C	inconclusive: 3.19%	
C[C@H]1C[C@H]2[C@@H]3CCC4=CC(=O)C=C[C@]4(C)[C@H]3C(=O)C[C@]2(C)[C@@]1(O)C(=O)CO		inconclusive: 0.0668 µM [rising, partial curve, poor fit]
CCc1cnc(C(=O)O)c(C(=O)O)c1	inconclusive: 14.1% [at 80.4 µM]	

Target: Bile acid receptor (Homo sapiens) (UniProt Q96RI1)
UniProt Q96RI1, sequence (Q96RI1 whole entry, looked up): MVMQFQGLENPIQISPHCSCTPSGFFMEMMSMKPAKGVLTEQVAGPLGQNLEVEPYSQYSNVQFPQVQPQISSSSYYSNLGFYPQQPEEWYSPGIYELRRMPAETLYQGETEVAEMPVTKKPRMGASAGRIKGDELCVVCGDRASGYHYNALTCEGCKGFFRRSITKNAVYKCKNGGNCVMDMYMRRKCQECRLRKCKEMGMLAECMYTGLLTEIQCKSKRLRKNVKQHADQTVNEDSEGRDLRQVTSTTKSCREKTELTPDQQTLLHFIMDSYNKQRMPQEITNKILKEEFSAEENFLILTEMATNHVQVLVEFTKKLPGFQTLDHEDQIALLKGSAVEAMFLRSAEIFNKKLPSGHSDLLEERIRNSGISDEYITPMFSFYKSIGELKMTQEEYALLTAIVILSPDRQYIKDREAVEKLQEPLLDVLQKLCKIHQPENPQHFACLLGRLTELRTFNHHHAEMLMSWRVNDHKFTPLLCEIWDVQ
Assay: qHTS assay to identify small molecule antagonists of the farnesoid-X-receptor (FXR) signaling pathway (AID 743217; active means well fitted inhibition curve with a large enough effect in the signal ratio in the repeat runs, not every such curve was filed as active; inconclusive means weak or mixed curves, or effect the other way; inactive means no such curve, though single readings can be large or run the other way; the % refers to the signal ratio)
Settings: HEK293T FXR-UAS-bla, beta-lactamase ratio, CDCA-stimulated, 16 h; activity change, negative = inhibition: at 62.6 µM (top of the series) unless noted
How it was run: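 Beta-lactamase reporter under UAS control in HEK 293T cells; compound exposure 16 h at 37 °C in the presence of chenodeoxycholic acid (50 uM final); signal from B/G FRET substrate after 2 h at room temperature.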

Compound	activity change, negative = inhibition
CCCCCCCCCCCCCCCCN	inactive: -14%
F[Si-2](F)(F)(F)(F)F	inconclusive: 0.934%
CCCCOC(=O)c1ccccc1C(=O)OCC(CC)CCCC (centres undefined)	inconclusive: -21.6%
O=c1[nH][nH]c2ccccc12	inactive: -3.41% [at 81.1 µM]
CN(C)CCN(Cc1ccc(Cl)cc1)c1ccccn1	inactive: -12.4%
CCCC(=O)OC/C=C(\C)CCC=C(C)C	inactive: 4.6%

System: not listed separately
Assay: qHTS assay to identify small molecule agonists of the farnesoid-X-receptor (FXR) signaling pathway - cell viability counter screen (AID 743218); further: nearly all actives have a fitted effect of over 45% in size; further: potency means the concentration at half of the fitted maximal effect
Settings: FXR-bla HEK293T viability, CellTiter-Glo luminescence, 16 h; viability change, negative = cytotoxic: at 62.6 µM (top of the series) unless noted
How it was run: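 In GeneBLAzer FXR-UAS-bla HEK 293T cells, compounds act for 16 h at 37 C. Cell viability is then scored in the reporter wells by CellTiter-Glo, 30 min at RT, luminescence.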

Compound	Potency	viability change, negative = cytotoxic
Cc1ccc(/C(=C\CN2CCCC2)c2ccccn2)cc1	inconclusive: 20.5 µM [cytotoxic, partial curve]	
CN1CCN(C2=Nc3ccccc3Oc3ccc(Cl)cc32)CC1	inconclusive: 13.3 µM [cytotoxic, partial curve, poor fit]	
CC1(C)[C@@H]2CC[C@@]1(C)C(=O)C2	inconclusive: 0.011 µM [rising, full curve]	
O=S(=O)(O)c1cccc2ccccc12	inconclusive: 0.0245 µM [rising, full curve, poor fit]	
Cc1ccc(C)c(OCCCC(C)(C)C(=O)O)c1	inconclusive: 1.56 µM [rising, partial curve]	
COC(=O)CCSCCC(=O)OC	inconclusive: 17.4 µM [rising, partial curve, poor fit]	
CN1CCC(=C2c3ccccc3CCc3cccnc32)CC1		inactive: 0.954%
CN(C)CCN(Cc1ccc(Cl)cc1)c1ccccn1	inconclusive: 26.6 µM [cytotoxic, partial curve]	

System: not listed separately
Assay: qHTS assay to identify small molecule antagonists of the farnesoid-X-receptor (FXR) signaling pathway - cell viability counter screen (AID 743221; active means well fitted cell-killing curve with a large enough effect in the repeat runs, not every such curve was filed as active; inconclusive means weak or mixed curves, or effect the other way; inactive means no such curve, though single readings can be large or run the other way; further: nearly all actives have a fitted effect of over 50% in size; further: potency means the concentration at half of the fitted maximal effect)
Settings: FXR-bla HEK293T viability, CellTiter-Glo luminescence, 16 h; activity change, negative = cytotoxicity: at 62.6 µM (top of the series) unless noted
How it was run: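 GeneBLAzer FXR-UAS-bla HEK 293T cells, compound plus chenodeoxycholic acid (50 uM final), 16 h at 37 C. CellTiter-Glo added to the same wells after the beta-lactamase read; luminescence read after 30 min at room temperature as viability.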

Compound	Potency
CN1CCN(C2=Nc3ccccc3Oc3ccc(Cl)cc32)CC1	inconclusive: 33.5 µM [falling, partial curve, poor fit]
OB(O)O	inactive
Cn1ccc2cc3c(cc21)CCN3C(=O)Nc1cccnc1	inconclusive: 16.4 µM [falling, partial curve, poor fit]
OC[C@@H](O)C(O)[C@@H](O)CO (some centres undefined)	inconclusive: 49.5 µM [rising, partial curve, poor fit]

Target: Vitamin D3 receptor (Homo sapiens) (UniProt P11473)
UniProt P11473, sequence (P11473 whole entry, looked up): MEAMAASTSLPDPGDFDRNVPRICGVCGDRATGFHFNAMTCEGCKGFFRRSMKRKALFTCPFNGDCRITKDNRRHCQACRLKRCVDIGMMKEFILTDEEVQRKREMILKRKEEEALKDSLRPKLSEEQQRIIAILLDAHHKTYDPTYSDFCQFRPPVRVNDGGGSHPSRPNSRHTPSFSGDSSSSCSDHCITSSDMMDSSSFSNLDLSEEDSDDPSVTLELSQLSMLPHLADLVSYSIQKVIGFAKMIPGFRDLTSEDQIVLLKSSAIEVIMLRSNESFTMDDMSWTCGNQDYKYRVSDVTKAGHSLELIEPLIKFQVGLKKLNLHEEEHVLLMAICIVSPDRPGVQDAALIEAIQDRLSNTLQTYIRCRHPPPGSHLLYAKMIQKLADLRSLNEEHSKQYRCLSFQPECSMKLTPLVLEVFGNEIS
Assay: qHTS assay to identify small molecule agonists of the vitamin D receptor (VDR) signaling pathway (AID 743222; calls by dose curve)
Settings: HEK293T VDR-UAS-bla, beta-lactamase FRET ratio, 16 h; activation: at 63.5 µM (top of the series) unless noted
How it was run: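 Agonist activity measured in VDR-bla reporter cells. Exposure 16 h, 37C, 5% CO2; detection by B/G FRET substrate, 2 h RT.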

Compound	activation	Potency
CC1CCC(=O)C1=O (centres undefined)	inactive: -10.5% [at 81.1 µM]	
COc1ccc(N)c(OC)c1		inactive
CCc1cnc(C(=O)O)c(C(=O)O)c1	inactive: -3.32% [at 81.1 µM]	

Target: Vitamin D3 receptor (Homo sapiens) (UniProt P11473)
Assay: qHTS assay to identify small molecule antagonists of the vitamin D receptor (VDR) signaling pathway (AID 743223; active means well fitted inhibition curve with a large enough effect in the signal ratio in the repeat runs, not every such curve was filed as active; inconclusive means weak or mixed curves, or effect the other way; inactive means no such curve, though single readings can be large or run the other way; the % refers to the signal ratio)
Settings: VDR-UAS-bla HEK293T, beta-lactamase FRET ratio, 16 h; activity change, negative = inhibition: at 61 µM (top of the series) unless noted
How it was run: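 VDR-bla cells were treated with compound plus 3 nM final 1alpha,25-dihydroxyvitamin D3 for 16 h at 37C. Beta-lactamase reporter read by B/G FRET substrate fluorescence after 2 h at room temperature. qHTS format.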

Compound	activity change, negative = inhibition	Potency
CC1CCC(=O)C1=O (centres undefined)	inconclusive: -4.98% [at 78.8 µM]	
CCCCOC(=O)c1ccccc1C(=O)OCC(CC)CCCC (centres undefined)	inconclusive: 9.46%	
CC1(C)[C@@H]2CC[C@@]1(C)C(=O)C2	inconclusive: 19.5%	
COc1ccc(N)c(OC)c1		inactive
O=P(OC(CCl)CCl)(OC(CCl)CCl)OC(CCl)CCl		inactive
CCN(CC)CCNC(=O)c1cc(Br)c(N)cc1OC	inactive: 6.94%	
OB(O)O	inconclusive: 22.7%	
O=c1[nH][nH]c2ccccc12	inactive: -11.3% [at 78.8 µM]	
CN1CCC(=C2c3ccccc3CCc3cccnc32)CC1	inactive: -7.15%	
OC[C@@H](O)C(O)[C@@H](O)CO (some centres undefined)	inconclusive: 6.73% [at 78.8 µM]	
O=C(OC1C[C@H]2CC[C@@H](C1)[N+]21CCCC1)C(O)(c1ccccc1)c1ccccc1 (some centres undefined)	inactive: 7.24%	
C[C@H]1C[C@H]2[C@@H]3CCC4=CC(=O)C=C[C@]4(C)[C@H]3C(=O)C[C@]2(C)[C@@]1(O)C(=O)CO	inactive: -5.23%	
CC(C)(c1ccc(Oc2ccc3c(c2)C(=O)OC3=O)cc1)c1ccc(Oc2ccc3c(c2)C(=O)OC3=O)cc1	inconclusive: 27.3%	
CC1(C)O[C@@H]2C[C@H]3[C@@H]4CCC5=CC(=O)C=C[C@]5(C)[C@H]4[C@@H](O)C[C@]3(C)[C@]2(C(=O)CO)O1	inactive: 29.6%	

System: not listed separately
Assay: qHTS assay to identify small molecule agonists of the vitamin D receptor (VDR) signaling pathway - cell viability counter screen (AID 743224); further: nearly all actives have a fitted effect of over 50% in size; further: potency means the concentration at half of the fitted maximal effect
Settings: VDR-bla HEK293T viability, CellTiter-Glo luminescence, 16 h; activity change, negative = cytotoxicity: at 62.6 µM (top of the series)
How it was run: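 VDR-bla cell line, quantitative HTS format; 16 h compound incubation (37C, 5% CO2); ATP-based CellTiter-Glo luminescence measured in the reporter assay wells.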

Compound	activity change, negative = cytotoxicity	Potency
CCCCCCCCCCCCCCCCN	inactive: -2.56%	
CC1CCC(=O)C1=O (centres undefined)		inconclusive: 18.2 µM [cytotoxic, partial curve, poor fit]
CC(C)=CCC/C(C)=C/C(=O)O	inactive: -16.8%	
COc1ccc(N)c(OC)c1		inconclusive: 55 µM [cytotoxic, single point]
CN(C)CCN(Cc1ccc(Cl)cc1)c1ccccn1		inconclusive: 29.8 µM [cytotoxic, partial curve, poor fit]
NCC1CCC(C(=O)Oc2ccc(CCC(=O)O)cc2)CC1 (centres undefined)	inactive: -0.812%	
